Consider 53 compounds from PubChem BioAssay AID1347073 (National Center for Advancing Translational Sciences (NCATS), 2019).

SMILES strings stand for the structures. About 200 (0.44%) of roughly 45,000 compounds were called active. Not shown: some 7% with an inconclusive outcome. The call rests on the fitted dose curve; in most records, active means well fitted activation curve with a large enough effect; inconclusive means small, poorly fitted or top-dose-only effect; inactive means no such curve, though single readings can be large or run the other way. This is one part of the list.

The nature of this assay: qHTS of TDP-43 Inhibitors: NCGC Sytravon Library Screen. Further: 0% is about no effect; nearly all actives have a fitted effect of over 55% in size. Particulars: yeast TDP-43 toxicity rescue, BacTiter-Glo growth, 24 h; series mostly up to 46.1 µM; growth rescue (activation): at the top concentration. In short, it runs like this:
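TDP-43-expressing yeast, pregrown in raffinose, seeded at OD600 0.02 in galactose medium with compound for 24 hr at 30 deg C. Growth read by BacTiter-Glo luminescence, so rescue of toxicity appears as activation.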
A general note: In qHTS, concentration-response curves come from the screen itself.
Consider `COc1ccc(N(CC2CO2)S(=O)(=O)c2ccccc2)cc1` (stereo not drawn), for which the “growth rescue (activation)” value is inactive: -7.88%.
For `COc1cccc(NC(=O)CN(C)CC(=O)NCc2ccc(F)cc2)c1`, the “growth rescue (activation)” value was inactive: 6.36%.
The figure for `Cn1c(CC(=O)Nc2ccc(F)cc2)nnc1SCC(=O)Nc1nncs1` is inactive: -0.6%; for `CCOc1ccccc1/C=N\Nc1cnn(Cc2ccccc2)c(=O)c1Cl` it is inactive: 12.6%.
For the compound `CC(C)Sc1snnc1-c1ccccc1`, the “growth rescue (activation)” value was inactive: -21.9%.
With `N=C1C(c2nc3ccccc3s2)=C(O)CN1NC(=O)c1ccc([N+](=O)[O-])cc1`, the “growth rescue (activation)” value was inactive: -16.8%.
Take `CCc1nc2nc(C)c(NS(=O)(=O)c3ccc(Cl)cc3)c(=O)n2[nH]1`: the “growth rescue (activation)” value is inactive: 6.12%.
The figure for `COc1ccc(CN(CC2CCC(C(=O)O)CC2)C(=S)Nc2ccccc2OC)cc1` (stereo not drawn) is inactive: 1.03%.
In the case of `N#Cc1ccc(CSc2nnc(Cc3cccs3)n2Cc2ccco2)cc1`, the “growth rescue (activation)” value is inactive: 11.5%.
The figure for `Cc1ccc(CNC(=O)Cc2ccc(-n3cccc3)cc2)cc1` is inactive: 13.4%; for `Cc1cc(C)nc(N/N=C/c2ccc3c(c2)OCCO3)n1` it is inactive: 7%.
Then `Cc1ccc(-c2csc(C(C)(O)c3cccc(F)c3)n2)cc1C` (stereo not drawn), with inactive: -42.9%; and `CCC(=O)N1CCN(CCN=CC2=C(O)CC(c3ccc(OC)cc3)CC2=O)CC1` (stereo not drawn), with inactive: 22.8%; and `O=C(Cn1nnc(-c2cccc(C(F)(F)F)c2)n1)NC(=O)NCc1ccco1`, with inactive: -12.5%.
Then `CNC(=S)N/N=C/c1ccccc1OCC(=O)O`, with inactive: -0.0345%.
As for `CCOCCCNC(=S)Nc1cc(C)cc(C)c1`, the “growth rescue (activation)” value is inactive: 24.2%.
With `COc1ccc(C(=O)CSc2n[nH]c(-c3ccncc3)n2)cc1[N+](=O)[O-]`, the “growth rescue (activation)” value is inactive: -10.1%.
Then `COC(=O)c1sccc1NC(=O)COc1cccc(C)c1`, with inactive: 18.8%; and `COc1ccc(OCc2cc(C(=O)NC(C)Cn3cncn3)no2)c(Cl)c1` (stereo not drawn), with inactive: -10.8%; and `COc1cc2c(cc1OC)C(c1cc3ccc(C)cc3[nH]c1=O)N(C(=O)c1ccco1)CC2` (stereo not drawn), with inactive: 13.9%.
For `O=C(CSc1nc2ccccc2[nH]1)N/N=C/C=C/c1ccccc1[N+](=O)[O-]`, the “growth rescue (activation)” value was inactive: -12.9%.
As to `COc1ccc(NC(=O)C2CCN(C(=O)Nc3ccc(C)cc3)CC2)cc1OC`, the “growth rescue (activation)” value is inactive: 8.75%.
Then `O=c1cnn(-c2ccc(Cl)cc2Cl)c(-c2ccccc2)c1`, with inactive: -1.57%.
The figure for `Cc1c(Cl)cccc1NC(=S)N1CCC(N(C)CC2CCCO2)CC1` (stereo not drawn) is inactive: 12.4%.
The figure for `COc1ccc(OC)c(CC(=O)NC(c2ccccc2)c2ccccc2)c1` is inactive: -2.74%; for `COCC[N+]1(C)CCCCC1` it is inactive: 0.136%; for `Cc1cc(/C=C(\C#N)C(=O)O)c(C)n1CCC(C)C` it is inactive: 0.37%.
Turning to `COc1ccc(N(CC(=O)NCc2cccnc2)S(=O)(=O)c2ccc(C)c([N+](=O)[O-])c2)cc1`, the “growth rescue (activation)” value was inactive: 0.737%.
Take `Nn1cnc2scc(-c3ccco3)c2c1=O`: the “growth rescue (activation)” value was inactive: 0.975%.
Regarding `CC(C)Cc1ccc(-c2ccc3nccn3c2)cc1`, the “growth rescue (activation)” value was inactive: 18.5%.
Then `O=C(NCC1CCCO1)c1cc(S(=O)(=O)N2CCOCC2)ccc1Cl` (stereo not drawn), with inactive: 11.2%; and `CCOc1ccccc1OCCC(=O)Nc1ccc(F)c(Cl)c1`, with inactive: 7.31%; and `CC(C)[C@@H](NC(=O)C1CCC(CNC(=O)[C@H](Cc2ccccc2)NC(=O)OC(C)(C)C)CC1)C(=O)O` (stereo partly drawn), with inactive: 1.35%.
For the compound `CN(c1ccc(OCc2ccc([N+](=O)[O-])cc2)cc1)S(=O)(=O)c1ccccc1`, the “growth rescue (activation)” value is inactive: 13.9%.
As for `CC(=O)NCCNc1nc2cc(-c3ccc(C(=O)N4CCN(C)CC4)cc3)sc2c(=O)n1C`, the “growth rescue (activation)” value was inactive: 12.8%.
The figure for `Brc1ccc(/C=N/n2cnnc2)s1` is inactive: -4.93%.
The figure for `COc1ccc(CCNC2CC(=O)N(N(C)C)C2=O)cc1OC` (stereo not drawn) is inactive: -0.898%; for `OCC1(Cc2ccccc2C(F)(F)F)CCN(Cc2cccc3cnccc23)CC1` it is inactive: -10.3%.
The figure for `Cc1c(C#N)c(O)[nH]c(=O)c1N=Nc1ccc(S(N)(=O)=O)cc1` is inactive: -0.904%.
Take `O=C(CNC(=O)c1cccc(F)c1)N/N=C/C=C/c1ccccc1`: the “growth rescue (activation)” value is inactive: -0.361%.
Take `Cc1cc(NS(=O)(=O)c2ccc(NC(=O)c3ccc([N+](=O)[O-])c(Cl)c3)cc2)no1`: the “growth rescue (activation)” value was inactive: -19.2%.
Then `Cc1ccc(-c2nnc(Nc3ccc(C(N)=O)cc3)c3ccccc23)cc1S(=O)(=O)NCC1CCCO1` (stereo not drawn), with inactive: -3.28%; and `COc1cc(CC(=O)Nc2cc(S(C)(=O)=O)ccc2Cl)cc(OC)c1OC`, with inactive: -4.52%.
Consider `Cc1cccc(C)c1N1C(=O)[C@@H]2C(c3ccccc3Cl)=NO[C@@H]2C1=O`, for which the “growth rescue (activation)” value was inactive: 4.18%.
The figure for `CCOC(=O)N1CCC(N(CCN(C)C)C(=S)Nc2cccc(Cl)c2C)CC1` is inactive: 12.1%.
The figure for `CC(NC(=O)C1CCN(S(=O)(=O)N2CCC3(CC2)OCCO3)CC1)c1ccccc1` (stereo not drawn) is inactive: -12%; for `CCCCn1c(N)c(N(CC(C)C)C(=O)COc2cc(C)ccc2Cl)c(=O)[nH]c1=O` it is inactive: 19.2%.
`CCOc1ccc(S(=O)(=O)N(CC(=O)NCC2CCCO2)c2ccc(F)cc2)cc1` (stereo not drawn): the “growth rescue (activation)” value is inactive: -12.8%.
For `CCn1c2ccccc2c2cc(NC(=O)CNC)ccc21`, the “growth rescue (activation)” value was inactive: -1.66%.
The figure for `CCCN1CC(=O)N2C(c3ccccc3)c3[nH]c4ccccc4c3C[C@H]2C1=O` (stereo partly drawn) is inactive: -8.6%.
The figure for `c1ccc2sc(Sc3ncnc4sccc34)nc2c1` is inactive: 30.1%; for `CC(C)(C)NC(=O)Cn1c(=O)n(CC(=O)NC(C)(C)C)c2ccccc21` it is inactive: 0.79%; for `CCN(c1ccccc1)S(=O)(=O)c1ccc(C(=O)NCCCn2ccnc2)cc1` it is inactive: -7.54%.
